Results are given in words; binding and its absence hold for the method and conditions named. Binding seen in cells or lysates may run through a third protein. Some results given as binding are weak or reduced against the parent protein; the word gives no strength. Tags and fused reporters may be left off the sequences shown.
T1: Flag-NEURL1 (UniProt Q923S6)
T1 sequence: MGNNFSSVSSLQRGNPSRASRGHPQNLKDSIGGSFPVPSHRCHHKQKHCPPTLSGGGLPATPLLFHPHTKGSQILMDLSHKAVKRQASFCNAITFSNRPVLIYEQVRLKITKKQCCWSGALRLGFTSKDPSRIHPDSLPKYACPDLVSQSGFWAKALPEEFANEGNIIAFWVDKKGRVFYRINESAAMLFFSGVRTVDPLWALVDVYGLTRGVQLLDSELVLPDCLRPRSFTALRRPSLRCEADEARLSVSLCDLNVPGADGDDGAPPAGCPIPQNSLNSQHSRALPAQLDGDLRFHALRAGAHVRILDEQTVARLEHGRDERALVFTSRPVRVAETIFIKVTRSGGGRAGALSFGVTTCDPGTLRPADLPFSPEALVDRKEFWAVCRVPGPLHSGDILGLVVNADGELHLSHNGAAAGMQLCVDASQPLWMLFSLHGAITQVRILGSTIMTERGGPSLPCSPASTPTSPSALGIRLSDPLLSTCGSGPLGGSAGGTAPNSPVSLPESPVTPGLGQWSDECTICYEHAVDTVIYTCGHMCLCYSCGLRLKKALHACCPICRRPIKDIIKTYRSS

Amino acid sequences for entries named in this document (tags omitted).
UniProt P0C1Q2: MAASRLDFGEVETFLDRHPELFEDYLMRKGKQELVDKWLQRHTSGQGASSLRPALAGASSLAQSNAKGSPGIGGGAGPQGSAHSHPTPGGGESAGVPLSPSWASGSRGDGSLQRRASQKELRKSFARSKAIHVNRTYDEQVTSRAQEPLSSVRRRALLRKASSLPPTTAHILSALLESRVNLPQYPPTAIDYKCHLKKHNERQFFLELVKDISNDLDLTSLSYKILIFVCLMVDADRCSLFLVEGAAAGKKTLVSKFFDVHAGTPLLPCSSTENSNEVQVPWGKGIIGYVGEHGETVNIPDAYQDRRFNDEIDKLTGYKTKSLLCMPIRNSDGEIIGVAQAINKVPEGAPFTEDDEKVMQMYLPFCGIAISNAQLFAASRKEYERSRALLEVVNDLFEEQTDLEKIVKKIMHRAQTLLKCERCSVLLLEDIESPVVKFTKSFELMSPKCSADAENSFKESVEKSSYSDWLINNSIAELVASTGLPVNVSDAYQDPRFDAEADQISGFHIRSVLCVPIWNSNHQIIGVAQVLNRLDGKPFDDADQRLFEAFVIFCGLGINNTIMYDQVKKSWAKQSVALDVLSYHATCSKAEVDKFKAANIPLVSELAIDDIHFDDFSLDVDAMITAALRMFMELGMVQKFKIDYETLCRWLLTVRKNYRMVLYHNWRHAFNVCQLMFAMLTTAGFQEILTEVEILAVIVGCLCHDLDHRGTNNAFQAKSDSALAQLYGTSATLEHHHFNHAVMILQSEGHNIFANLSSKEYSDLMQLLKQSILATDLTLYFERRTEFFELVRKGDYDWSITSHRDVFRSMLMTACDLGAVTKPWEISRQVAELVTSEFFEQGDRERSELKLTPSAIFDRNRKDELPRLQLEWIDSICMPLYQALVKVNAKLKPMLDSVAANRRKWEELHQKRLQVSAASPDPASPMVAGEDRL

T2: Flag-NEURL1B (human) (UniProt A8MQ27)
T2 sequence: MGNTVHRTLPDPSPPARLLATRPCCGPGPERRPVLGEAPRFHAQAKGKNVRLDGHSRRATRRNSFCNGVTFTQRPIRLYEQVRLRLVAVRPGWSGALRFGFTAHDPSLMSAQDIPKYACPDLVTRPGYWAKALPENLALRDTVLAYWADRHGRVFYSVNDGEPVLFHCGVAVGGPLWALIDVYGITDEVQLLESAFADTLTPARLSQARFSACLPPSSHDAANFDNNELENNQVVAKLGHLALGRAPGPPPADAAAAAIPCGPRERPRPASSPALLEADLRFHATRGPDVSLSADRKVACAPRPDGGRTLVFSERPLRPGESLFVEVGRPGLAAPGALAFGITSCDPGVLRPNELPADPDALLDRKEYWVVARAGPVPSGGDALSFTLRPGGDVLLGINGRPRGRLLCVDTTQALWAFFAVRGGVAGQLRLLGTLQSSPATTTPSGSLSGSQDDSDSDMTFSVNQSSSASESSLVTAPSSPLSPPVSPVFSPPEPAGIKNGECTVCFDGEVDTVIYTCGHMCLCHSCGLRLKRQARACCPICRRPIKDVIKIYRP

T3: NEURL1-Flag (UniProt Q923S6)
T3 sequence: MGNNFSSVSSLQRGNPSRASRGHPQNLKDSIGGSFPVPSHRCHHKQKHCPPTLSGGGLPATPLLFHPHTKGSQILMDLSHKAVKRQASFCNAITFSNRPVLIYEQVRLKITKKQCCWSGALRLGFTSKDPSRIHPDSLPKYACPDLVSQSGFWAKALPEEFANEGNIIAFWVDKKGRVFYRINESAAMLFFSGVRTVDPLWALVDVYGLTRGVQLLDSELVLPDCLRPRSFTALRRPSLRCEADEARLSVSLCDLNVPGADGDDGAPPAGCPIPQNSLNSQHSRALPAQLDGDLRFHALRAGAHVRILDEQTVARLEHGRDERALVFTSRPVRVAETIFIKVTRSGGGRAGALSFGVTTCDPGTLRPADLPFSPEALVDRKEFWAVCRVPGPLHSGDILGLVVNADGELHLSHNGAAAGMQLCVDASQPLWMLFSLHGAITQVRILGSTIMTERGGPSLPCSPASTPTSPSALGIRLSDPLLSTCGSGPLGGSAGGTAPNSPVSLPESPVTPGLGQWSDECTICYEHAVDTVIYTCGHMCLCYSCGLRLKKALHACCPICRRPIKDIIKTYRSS

T4: endogenous NEURL1 (human (endogenous in HEK293-FT)) (UniProt O76050)
T4 sequence: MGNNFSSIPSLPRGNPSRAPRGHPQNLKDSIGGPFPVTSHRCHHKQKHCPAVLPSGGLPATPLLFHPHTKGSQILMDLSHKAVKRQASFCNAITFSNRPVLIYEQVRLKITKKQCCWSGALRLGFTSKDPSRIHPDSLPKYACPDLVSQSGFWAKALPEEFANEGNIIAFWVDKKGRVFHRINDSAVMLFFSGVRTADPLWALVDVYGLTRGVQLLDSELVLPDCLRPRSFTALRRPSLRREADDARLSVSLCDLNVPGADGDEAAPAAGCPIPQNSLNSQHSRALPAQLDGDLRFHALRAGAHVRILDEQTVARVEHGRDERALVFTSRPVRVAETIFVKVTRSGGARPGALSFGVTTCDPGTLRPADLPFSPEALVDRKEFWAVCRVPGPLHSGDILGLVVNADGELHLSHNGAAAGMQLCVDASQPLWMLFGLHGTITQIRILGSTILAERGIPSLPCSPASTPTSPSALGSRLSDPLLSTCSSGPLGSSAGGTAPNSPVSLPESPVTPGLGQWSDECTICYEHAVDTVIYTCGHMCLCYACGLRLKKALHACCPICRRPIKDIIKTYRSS

T5: PDE9A-V5His (rat) (UniProt Q8QZV1)
T5 sequence: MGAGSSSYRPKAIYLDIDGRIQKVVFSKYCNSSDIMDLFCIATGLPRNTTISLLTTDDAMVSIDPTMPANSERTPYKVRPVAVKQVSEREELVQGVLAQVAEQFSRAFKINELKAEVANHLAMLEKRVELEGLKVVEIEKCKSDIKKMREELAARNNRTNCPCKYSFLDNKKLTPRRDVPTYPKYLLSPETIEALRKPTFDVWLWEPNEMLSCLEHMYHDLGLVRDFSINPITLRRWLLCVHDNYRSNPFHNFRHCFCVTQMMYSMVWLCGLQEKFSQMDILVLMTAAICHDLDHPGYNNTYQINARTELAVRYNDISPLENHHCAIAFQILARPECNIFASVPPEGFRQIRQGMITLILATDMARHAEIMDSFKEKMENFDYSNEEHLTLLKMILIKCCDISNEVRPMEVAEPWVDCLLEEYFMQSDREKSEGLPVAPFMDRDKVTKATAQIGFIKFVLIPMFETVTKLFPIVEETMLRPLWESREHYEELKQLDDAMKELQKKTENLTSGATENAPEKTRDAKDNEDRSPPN


Tests used:
Flag-NEURL1 = biological target: T1, Flag-NEURL1; experiment: co-IP; proteins co-expressed in HEK293-FT cells; lysis in 20 mM Tris HCl pH 7.4, 200 mM NaCl, 1 mM EDTA, 0.5% NP-40; precipitation by the tags (V5- or Flag-agarose, E2 antibody on Protein A sepharose) overnight at +4 °C; immunoblot
Flag-NEURL1B (human) = biological target: T2, Flag-NEURL1B (human); experiment: as above
NEURL1-Flag = biological target: T3, NEURL1-Flag; experiment: as above
[1] = biological target: T4, endogenous NEURL1 (human (endogenous in HEK293-FT)); experiment: co-IP; HEK293-FT cells expressing PDE9A-V5His with or without untagged NEURL1; precipitation with custom-raised polyclonal NEURL1 antibodies on Protein A sepharose; immunoblot with V5 antibody
PDE9A-V5His (rat) = biological target: T5, PDE9A-V5His (rat); experiment: co-IP; proteins co-expressed in HEK293-FT cells; lysis in 20 mM Tris HCl pH 7.4, 200 mM NaCl, 1 mM EDTA, 0.5% NP-40; precipitation by the tags (V5- or Flag-agarose, E2 antibody on Protein A sepharose) overnight at +4 °C; immunoblot

Molecule | binding (Flag-NEURL1) | binding (PDE9A-V5His (rat)) | also measured
E2-tagged PDE11A (from UniProt P0C1Q2 1-933) (enzyme) | no binding | – | –
PDE9A-E2 (enzyme, UniProt Q8QZV1 1-534) MGAGSSSYRPKAIYLDIDGRIQKVVFSKYCNSSDIMDLFCIATGLPRNTTISLLTTDDAMVSIDPTMPANSERTPYKVRPVAVKQVSEREELVQGVLAQVAEQFSRAFKINELKAEVANHLAMLEKRVELEGLKVVEIEKCKSDIKKMREELAARNNRTNCPCKYSFLDNKKLTPRRDVPTYPKYLLSPETIEALRKPTFDVWLWEPNEMLSCLEHMYHDLGLVRDFSINPITLRRWLLCVHDNYRSNPFHNFRHCFCVTQMMYSMVWLCGLQEKFSQMDILVLMTAAICHDLDHPGYNNTYQINARTELAVRYNDISPLENHHCAIAFQILARPECNIFASVPPEGFRQIRQGMITLILATDMARHAEIMDSFKEKMENFDYSNEEHLTLLKMILIKCCDISNEVRPMEVAEPWVDCLLEEYFMQSDREKSEGLPVAPFMDRDKVTKATAQIGFIKFVLIPMFETVTKLFPIVEETMLRPLWESREHYEELKQLDDAMKELQKKTENLTSGATENAPEKTRDAKDNEDRSPPN | binds | – | –
PDE9A-cat-E2 (domain or fragment, UniProt Q8QZV1 217-534) MYHDLGLVRDFSINPITLRRWLLCVHDNYRSNPFHNFRHCFCVTQMMYSMVWLCGLQEKFSQMDILVLMTAAICHDLDHPGYNNTYQINARTELAVRYNDISPLENHHCAIAFQILARPECNIFASVPPEGFRQIRQGMITLILATDMARHAEIMDSFKEKMENFDYSNEEHLTLLKMILIKCCDISNEVRPMEVAEPWVDCLLEEYFMQSDREKSEGLPVAPFMDRDKVTKATAQIGFIKFVLIPMFETVTKLFPIVEETMLRPLWESREHYEELKQLDDAMKELQKKTENLTSGATENAPEKTRDAKDNEDRSPPN | binds | – | –
PDE9A-V5His (enzyme, UniProt Q8QZV1 1-534) MGAGSSSYRPKAIYLDIDGRIQKVVFSKYCNSSDIMDLFCIATGLPRNTTISLLTTDDAMVSIDPTMPANSERTPYKVRPVAVKQVSEREELVQGVLAQVAEQFSRAFKINELKAEVANHLAMLEKRVELEGLKVVEIEKCKSDIKKMREELAARNNRTNCPCKYSFLDNKKLTPRRDVPTYPKYLLSPETIEALRKPTFDVWLWEPNEMLSCLEHMYHDLGLVRDFSINPITLRRWLLCVHDNYRSNPFHNFRHCFCVTQMMYSMVWLCGLQEKFSQMDILVLMTAAICHDLDHPGYNNTYQINARTELAVRYNDISPLENHHCAIAFQILARPECNIFASVPPEGFRQIRQGMITLILATDMARHAEIMDSFKEKMENFDYSNEEHLTLLKMILIKCCDISNEVRPMEVAEPWVDCLLEEYFMQSDREKSEGLPVAPFMDRDKVTKATAQIGFIKFVLIPMFETVTKLFPIVEETMLRPLWESREHYEELKQLDDAMKELQKKTENLTSGATENAPEKTRDAKDNEDRSPPN | binds | – | binding (Flag-NEURL1B (human)): binds; binding (NEURL1-Flag): binds; binding [1]: binds
Flag-NEURL1 (protein, UniProt Q923S6 1-574) MGNNFSSVSSLQRGNPSRASRGHPQNLKDSIGGSFPVPSHRCHHKQKHCPPTLSGGGLPATPLLFHPHTKGSQILMDLSHKAVKRQASFCNAITFSNRPVLIYEQVRLKITKKQCCWSGALRLGFTSKDPSRIHPDSLPKYACPDLVSQSGFWAKALPEEFANEGNIIAFWVDKKGRVFYRINESAAMLFFSGVRTVDPLWALVDVYGLTRGVQLLDSELVLPDCLRPRSFTALRRPSLRCEADEARLSVSLCDLNVPGADGDDGAPPAGCPIPQNSLNSQHSRALPAQLDGDLRFHALRAGAHVRILDEQTVARLEHGRDERALVFTSRPVRVAETIFIKVTRSGGGRAGALSFGVTTCDPGTLRPADLPFSPEALVDRKEFWAVCRVPGPLHSGDILGLVVNADGELHLSHNGAAAGMQLCVDASQPLWMLFSLHGAITQVRILGSTIMTERGGPSLPCSPASTPTSPSALGIRLSDPLLSTCGSGPLGGSAGGTAPNSPVSLPESPVTPGLGQWSDECTICYEHAVDTVIYTCGHMCLCYSCGLRLKKALHACCPICRRPIKDIIKTYRSS | – | binds | –
NEURL1-Flag (protein, UniProt Q923S6 1-574) MGNNFSSVSSLQRGNPSRASRGHPQNLKDSIGGSFPVPSHRCHHKQKHCPPTLSGGGLPATPLLFHPHTKGSQILMDLSHKAVKRQASFCNAITFSNRPVLIYEQVRLKITKKQCCWSGALRLGFTSKDPSRIHPDSLPKYACPDLVSQSGFWAKALPEEFANEGNIIAFWVDKKGRVFYRINESAAMLFFSGVRTVDPLWALVDVYGLTRGVQLLDSELVLPDCLRPRSFTALRRPSLRCEADEARLSVSLCDLNVPGADGDDGAPPAGCPIPQNSLNSQHSRALPAQLDGDLRFHALRAGAHVRILDEQTVARLEHGRDERALVFTSRPVRVAETIFIKVTRSGGGRAGALSFGVTTCDPGTLRPADLPFSPEALVDRKEFWAVCRVPGPLHSGDILGLVVNADGELHLSHNGAAAGMQLCVDASQPLWMLFSLHGAITQVRILGSTIMTERGGPSLPCSPASTPTSPSALGIRLSDPLLSTCGSGPLGGSAGGTAPNSPVSLPESPVTPGLGQWSDECTICYEHAVDTVIYTCGHMCLCYSCGLRLKKALHACCPICRRPIKDIIKTYRSS | – | binds | –
Flag-NEURL1B (protein, UniProt A8MQ27 1-555) MGNTVHRTLPDPSPPARLLATRPCCGPGPERRPVLGEAPRFHAQAKGKNVRLDGHSRRATRRNSFCNGVTFTQRPIRLYEQVRLRLVAVRPGWSGALRFGFTAHDPSLMSAQDIPKYACPDLVTRPGYWAKALPENLALRDTVLAYWADRHGRVFYSVNDGEPVLFHCGVAVGGPLWALIDVYGITDEVQLLESAFADTLTPARLSQARFSACLPPSSHDAANFDNNELENNQVVAKLGHLALGRAPGPPPADAAAAAIPCGPRERPRPASSPALLEADLRFHATRGPDVSLSADRKVACAPRPDGGRTLVFSERPLRPGESLFVEVGRPGLAAPGALAFGITSCDPGVLRPNELPADPDALLDRKEYWVVARAGPVPSGGDALSFTLRPGGDVLLGINGRPRGRLLCVDTTQALWAFFAVRGGVAGQLRLLGTLQSSPATTTPSGSLSGSQDDSDSDMTFSVNQSSSASESSLVTAPSSPLSPPVSPVFSPPEPAGIKNGECTVCFDGEVDTVIYTCGHMCLCHSCGLRLKRQARACCPICRRPIKDVIKIYRP | – | binds | –

From article PMC6506465
